The list shows a part of the results. For part of these data: At the low end of the ranking the order means little. For part of these data: Measured with an extract: partners may take part in the binding.
Tests used:
Settings in all cases: 20 mM HEPES pH 7.9, 100 mM NaCl, 1 mM DTT, 0.2 mg/mL BSA, 0.02% Triton X-100, 2% milk, 0.4 mg/mL salmon testes DNA; 1 h; temperature not stated; high values mean tight binding; double strand, one strand shown; sequences stand for … in GCCTAGCAC…GTGCTAGGTCTTGATTCGCTTGACGCTGCTG
[1] = biological target: PU.1 (IVT) (UniProt P17947); assay: protein-binding microarray (PBM)
[2] = biological target: PU.1 (endogenous, THP-1 nuclear extract) (UniProt P17947); assay: nuclear extract protein-binding microarray (nextPBM)
[3] = biological target: T1, FLI1 (endogenous, THP-1 nuclear extract) (UniProt Q01543); assay: as above
T1 sequence: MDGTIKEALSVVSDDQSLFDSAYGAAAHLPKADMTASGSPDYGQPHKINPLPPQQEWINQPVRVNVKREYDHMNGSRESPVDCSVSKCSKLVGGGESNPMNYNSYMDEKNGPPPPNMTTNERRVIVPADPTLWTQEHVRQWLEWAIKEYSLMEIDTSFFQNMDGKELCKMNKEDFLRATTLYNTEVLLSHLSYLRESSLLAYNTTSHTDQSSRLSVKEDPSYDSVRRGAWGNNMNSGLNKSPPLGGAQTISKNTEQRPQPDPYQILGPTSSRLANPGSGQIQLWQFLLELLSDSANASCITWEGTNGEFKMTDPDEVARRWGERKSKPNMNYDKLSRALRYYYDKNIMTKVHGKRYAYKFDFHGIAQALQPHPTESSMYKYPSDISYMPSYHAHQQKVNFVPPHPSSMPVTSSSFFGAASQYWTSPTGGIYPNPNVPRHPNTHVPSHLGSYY

| Sequence | binding signal [1] | binding signal [2] | binding signal [3] |
| --- | --- | --- | --- |
| AAAAAGGGGAAGTCAATTTT | 8.55 z-score | 7.53 z-score | 3.57 z-score |
| AGGAAGAGGAAGTGGCAGGG | 6.45 z-score | 6.33 z-score | 3.69 z-score |
| GGAAAGAGGAACTGATATAT | 6.18 z-score | 6.62 z-score | 2.79 z-score |
| CACAAGGGGAAGTGGTAGGA | 4.17 z-score | 4.83 z-score | 2.24 z-score |
| AGGAGAGGGAAGTGAGAGAT | 2.61 z-score | 2.77 z-score | 1.51 z-score |
| AGAATGAGGAAGTCTCTTCT | 7.18 z-score | 7.09 z-score | 3.02 z-score |
| TGAAAGAGGAAATGAATCAC | 4.38 z-score | 4.68 z-score | 3.04 z-score |
| ACTTTGGGGAAGTGAAGACC | 4.3 z-score | 4.71 z-score | 1.58 z-score |
| ATTAAGGGGAAGTGATCAAA | 5.73 z-score | 5.7 z-score | 2.45 z-score |
| GGCATGAGGAAGTGGTTCTG | 5.67 z-score | 6.07 z-score | 2.8 z-score |
| CAAAGGAGGAACTGATGCGG | 3.85 z-score | 3.83 z-score | 1.51 z-score |
| CAGGAGAGGAAGTTGGAGAC | 4.52 z-score | 4.61 z-score | 2.85 z-score |
| ATGAGGAGGAAGTGAGGGTC | 3.71 z-score | 4.18 z-score | 2.66 z-score |
| ACTAGGAGGAAGTGGGAAAC | 4.97 z-score | 4.86 z-score | 2.82 z-score |
| TAAGGGAGGAAGTGTTAGGA | 3.19 z-score | 2.87 z-score | 2.6 z-score |
| ACCTCTGGGAACTACTGTGG | 0.297 z-score | 0.358 z-score | -0.443 z-score |
| AGAAAAGGGAAGTGGGGAAG | 6.34 z-score | 6.5 z-score | 2.5 z-score |
| GGAAGGAGGAAGTGAGGGGC | 5.54 z-score | 6.11 z-score | 2.99 z-score |
| CAAATGAGGAACTGGTGCGG | 5.9 z-score | 6.34 z-score | 2.24 z-score |
| GAGAAGGGGAAGTAGCGTCT | 5.66 z-score | 6.39 z-score | 3.19 z-score |
| AAAATGAGGAAATGTCAAAA | 5.05 z-score | 4.56 z-score | 2.02 z-score |

From PMC6451091
